Assay results as given in article PMC12040169 (PLOS Biology, 2025).
The other results are listed elsewhere or left out.

What follows are molecules tested on T1, C. trachomatis L2/434/Bu expressing GFP (CTL2-GFP). Details: total inclusion area; 28.5 h, 10 µM; inhibitor.
T1 construct: L2/434/Bu GFP intracellular growth in HeLa cells
Parameters: species or system HeLa; C. trachomatis total inclusion area by high-content imaging, normalised to DMSO
Procedure, shortened: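 After bulk GFP and resorufin fluorescence reads, cells were fixed, stained with Hoechst and imaged by high-content microscopy. Inclusion area and number (GFP) stood in for chlamydial growth, nuclei count (Hoechst) for host cell viability. MICs were derived as for the bulk readout.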

| Structure (SMILES) | % of control remaining |
| --- | --- |
| COC(=O)c1ccc(S(=O)(=O)N2CCc3ccccc3C2)cc1 [CBK068696] | 116.345 |
| O=C1NCCNC(=O)C2(CCCCOc3ccccc31)CCN(C(=O)c1ccnnc1)CC2 [CBK292105] | 91.9277 |
| Cc1cc(C(=O)Nc2cccc(S(=O)(=O)N3CCOCC3)c2)sc1-c1ccccc1 [CBK268185] | 27.0062 |
| O=C(N/N=C/c1ccc(O)cc1)C(=O)N/N=C/c1ccc(O)cc1 [CBK261625] | 99.371 |
| CCOc1ccccc1N1C(=O)CC(Sc2nc(-c3ccccc3)c3cc(Cl)ccc3n2)C1=O (centres unmarked) [CBK265405] | 85.487 |
| CCc1c(S(=O)(=O)CCC(=O)OC)c2ccccc2[n+]([O-])c1C [CBK155469T] | 83.5378 |
| Cc1cc(C(=O)N2CCC(c3nccn3C)CC2)ccc1F [CBK304355] | 93.6929 |
| O=[N+]([O-])c1ccccc1/C=C\C=N\n1c(S)nnc1-c1ccc(Cl)cc1Cl [CBK264405] | 112.59 |
| COc1ccccc1NC(=O)CN(c1ccc(Br)cc1)S(C)(=O)=O [CBK265254] | 98.5511 |
| OCc1nnn(-c2ccncc2)c1CO [CBK288549] | 81.8037 |
| Cc1ccc(S(=O)(=O)NCCCN2CCOCC2)c(C)c1C [CBK264990] | 112.524 |
| Cc1csc(C(Cc2ccsc2)NC(=O)Cn2ccnc2)n1 (centres unmarked) [CBK285113] | 123.59 |
| CC1CCN(CCCNS(=O)(=O)c2ccc(N3CCCC3=O)cc2)CC1 [CBK304220] | 58.9428 |
| Cc1cccc(C2N3CCC4(CC3)c3[nH]c5ccccc5c3CCN24)n1 (centres unmarked) [CBK284435] | 82.8166 |
| CC1CCCCN1Cc1nc2c(c(=O)n(C)c(=O)n2C)n1Cc1ccc(Br)cc1 (centres unmarked) [CBK269184] | 110.259 |
| OCc1cccc(-c2nccnc2NCc2ccncc2)c1 [CBK037446] | 88.4445 |
| O=C(c1ccccc1)c1ccc2[nH]nnc2c1 [CBK091608] | 74.6939 |
| Cc1cc(C)c(NC(=O)CSc2n[nH]c(=O)n2C2CC2)c(C)c1 [CBK295598] | 97.2564 |
| Fc1ccc(-c2cn(-c3ccc(OCc4ccccc4)c(F)c3)nn2)cc1 [CBK113121] | 120.523 |
| Cc1nc2ccc(C(=O)NC(C)Cc3cccs3)cc2[nH]1 (centres unmarked) [CBK282487] | 121.9 |
| Cc1cc(C)cc(N(CC(=O)Nc2ccccc2-c2ccccc2)S(=O)(=O)c2ccccc2)c1 [CBK265933] | 72.2523 |
| COc1ccc(OC)c(NC(=O)CSc2ccc(-c3ccncc3)nn2)c1 [CBK287637] | 112.665 |
| CC1(NC(=O)CC2C(=O)NCCN2Cc2cccc(F)c2)CCC1 (centres unmarked) [CBK281611] | 121.598 |
| CC(=O)N[C@H]1CO[C@H]2[C@@H]1OC[C@H]2OC(=O)Nc1ccc(Oc2ccccc2)cc1 [CBK289470] | 76.7972 |
| COc1ccc(C(C)c2cc3c(cc2OC)OCO3)c(F)c1 (centres unmarked) [CBK200112] | 10.1402 |
| O=C(O)C1C2C=CC(C2)C1C(=O)N1CCN(Cc2ccc(Cl)cc2)CC1 (centres unmarked) [CBK270318] | 79.9935 |
| N#CC1=C(Nc2ccccc2)Oc2cc(N)ccc2C1c1cccnc1 (centres unmarked) [CBK269435] | 85.2012 |

| Structure (SMILES) | % of control remaining |
| --- | --- |
| Cc1cc(NCCc2ccc(=O)[nH]c2)nc(-c2cc(F)c(F)cc2F)n1 [CBK144636C] | 93.8335 |
| COc1ccccc1NC(=O)CCn1c(C(F)F)cc2cccnc21 [CBK285065] | 121.792 |
| Cc1ccc([N+](=O)[O-])c(OCCN2CCN(Cc3ccccc3)CC2)c1 [CBK268568G] | 97.006 |
| COc1cc2c(c(OC)c1OC)C(c1ccccc1C)CC(=O)N2 (centres unmarked) [CBK288205] | 80.1772 |
| C#CCNCc1ccc(O)cc1 [CBK013235C] | 54.1112 |
| Cc1ccc2c(c1)OC(C)(C)CC2NS(=O)(=O)N1CCN(C)CC1 (centres unmarked) [CBK307271] | 75.0956 |
| N#CCc1ccc(OC(=O)c2cccnc2)cc1 [CBK090304] | 18.9365 |
| O=S(=O)(c1ccc(C(F)(F)F)cc1Cl)N1CCN(Cc2cccc(Br)c2)CC1 [CBK063163] | 89.5171 |
| CCCC(=O)NC(NC(=S)Nc1ccccc1Cl)C(Cl)(Cl)Cl (centres unmarked) [CBK261026] | 75.8962 |
| CCCCSc1nc(N)cc(N2CCC(N3CCCC3=O)CC2)n1 [CBK307525] | 69.9201 |
| O=[N+]([O-])c1cccc(-c2cc(Nc3ccc4[nH]ccc4c3)ncn2)c1 [CBK090860] | 158.831 |
| O=C(Nc1ccc(N2CCOCC2)c(Cl)c1)c1cccc(-n2cnnc2)c1 [CBK269853] | 106.563 |
| CCn1c(SCC(=O)NC2CCCCC2C)nnc1-c1cc2cccc(OC)c2o1 (centres unmarked) [CBK267148] | 128.295 |
| CC(=O)NC(CSc1cc(C)nc2ccc(F)cc12)C(=O)O (centres unmarked) [CBK286815] | 117.838 |
| COCC(=O)N1CCN(Cc2cccc(-c3ccccn3)c2)CC1 [CBK304035] | 81.2217 |
| CNC(=O)CN1C(=O)CC2(C1=O)C(=O)N(CCOC)c1ccc(OC)cc12 (centres unmarked) [CBK075144] | 99.5547 |
| Cc1cc(C)c2[nH]c(CC(=O)N(C)CCN(C)C)nc2c1 [CBK282727] | 120.537 |
| CC(CCCC(C)(C)O)Nc1cncc(-c2ccc(C(N)=O)cc2)n1 (centres unmarked) [CBK066071] | 103.029 |
| O=C(Cc1c[nH]c2ccccc12)Nc1cccnc1N1CCNCC1 [CBK028265T] | 81.2155 |
| CCN(CC)CCCNc1nc2ccc(O)cc2s1 [CBK023880C] | 69.6826 |
| CC(=O)Oc1ccc(C(=O)NCc2ccc3c(c2)OCO3)cc1 [CBK264372] | 102.25 |
| COc1ccc(C(=O)NCC(=O)Nc2ccc(N3CCCCC3)cc2)cc1OC [CBK295199] | 100.222 |
| Cc1nc(CC(NC(=O)C(c2ccccc2)c2ccccc2)c2ccc(F)cc2)cc(=O)[nH]1 (centres unmarked) [CBK285669] | 68.1013 |
| CCN(CC)C(=O)CNS(=O)(=O)c1cc(Br)c(Cl)s1 [CBK034500] | 86.9184 |
| OC1(CN2CCCC2)CCN(Cc2sccc2Cl)CC1 [CBK307491] | 33.3108 |
| COc1cccc(C(=O)C2=C(O)C(=O)N(CCCn3ccnc3)C2c2cccc(F)c2)c1 (centres unmarked) [CBK266419] | 97.418 |
| Cc1ccc(Cn2ncc3c(NCCCN4CCOCC4)ncnc32)cc1 [CBK077470] | 94.9587 |

| Structure (SMILES) | % of control remaining |
| --- | --- |
| Cc1cc(N2CCN(c3ccc(O)cc3)CC2)n2nc(-c3nccn3C)cc2n1 [CBK286188] | 139.663 |
| Cc1cccc(NC(=S)NNC(=O)CCC(=O)O)c1 [CBK261542] | 94.5859 |
| CC1=C(C(=O)OC(C)C)C(c2cccc(I)c2)C2=C(CCCC2=O)N1 (centres unmarked) [CBK026317] | 41.023 |
| c1ccc(Cn2cc(-c3nccnc3OC3CCCCC3)cn2)cc1 [CBK107092] | 107.615 |
| Nc1cccc(-c2cc(C(=O)NCCc3cccnc3)cnc2-c2ccc(F)cc2)c1 [CBK038016] | 96.6826 |
| O=C(NCCN1CCOCC1)N1CCN(CCc2ccccc2)CC1 [CBK158908] | 99.101 |
| COc1cc(C(C)=O)ccc1OCCCN1CCC(O)(C(=O)c2cccc(C(F)(F)F)c2)CC1 [CBK024866C] | 35.1913 |
| CCCC/C=C/c1cncc(NCCO)n1 [CBK065419] | 110.555 |
| O=C(NCC(F)(F)F)c1ccc(-c2ccccc2)nc1NCc1cccnc1 [CBK076551] | 116.005 |
| Cc1ccc(NC(=O)CN2C(=O)S/C(=C\c3ccc4c(c3)n(C)c(=O)n4C)C2=O)cc1 [CBK264501] | 94.7928 |
| CC(Sc1nc(-c2ccccc2)nc2ccccc12)C(=O)Nc1ccccc1C(F)(F)F (centres unmarked) [CBK265795] | 109.89 |
| O=C(NCc1ccccc1)C1(c2ccccc2)CCCC1 [CBK149540] | 115.379 |
| O=C(Nc1cccc(F)c1)N1CCC(Cc2cccnc2)CC1 [CBK306369] | 48.9624 |
| CCOc1cc([N+](=O)[O-])cc(C=O)c1OC(C)C(=O)O (centres unmarked) [CBK264642] | 111.754 |
| Cc1ccc(/C(N)=N/OC(=O)COc2cccc3ccccc23)cc1 [CBK263009] | 107.451 |
| C=CCN1C(=O)CC2(C1=O)C(=O)N(CCCN(C)S(C)(=O)=O)c1ccc(Cl)cc12 (centres unmarked) [CBK075432] | 109.607 |
| Cc1nn(C(C)C)c(C)c1CN1CCC(c2c(C(=O)NC(C)C)sc3ccccc23)C1 (centres unmarked) [CBK285890] | 96.2191 |
| CCCC(=O)N(C)C1CCC2(CC1)CNC(=O)c1cc(C)ccc1O2 (centres unmarked) [CBK281694] | 99.7582 |
| O=C(CO)N1CC2(CCN(Cc3ccc(OC(F)(F)F)cc3)CC2)c2ccccc21 [CBK131493] | 89.1172 |
| CC(=O)NCCc1nc2ccc(NC(=O)Cn3nc(C)c4ccccc4c3=O)cc2n1C [CBK268249] | 94.5707 |
| CC(=O)N1CCN(C(=O)C(C)S(=O)(=O)c2ccccc2F)CC1 (centres unmarked) [CBK305603] | 48.6673 |
| CC(C)CNC(=O)N1CCN(CCN2CCOCC2)CC1 [CBK155826] | 93.9427 |
| Cc1cc(C)n(C(C)CC(=O)N2CCCCC2CCN2CCCC2)n1 (centres unmarked) [CBK282078] | 104.237 |
| Cc1cc2ncn(CC(=O)NCc3ccccc3)c2cc1C [CBK200213] | 50.4769 |
| COc1cc(/C=C/c2cc(C(F)(F)F)[nH]c(=O)n2)c(Cl)cc1O [CBK287936] | 40.7173 |
| Cc1cc(Cl)cc(Br)c1OCCN1CCN(C)CC1 [CBK269668C] | 75.9539 |
